Measured values: the supplement of paper PMC3334620
The full ranking holds about 33,000 sequences; the median of “E-score (-0.5 to 0.5)” is about -0.017, and the highest 2% start at about 0.3. The list shows a part of the results.

These sequences were tested against T1, Sut1 (UniProt P53032) (assay: PBM E-score (8-mer binding enrichment) (E-score (-0.5 to 0.5)); higher = stronger / more preferred TF binding; most listed sequences are background and not binding sites). Details: protein concentration: 200 nM; construct: GST-full length.
T1 sequence: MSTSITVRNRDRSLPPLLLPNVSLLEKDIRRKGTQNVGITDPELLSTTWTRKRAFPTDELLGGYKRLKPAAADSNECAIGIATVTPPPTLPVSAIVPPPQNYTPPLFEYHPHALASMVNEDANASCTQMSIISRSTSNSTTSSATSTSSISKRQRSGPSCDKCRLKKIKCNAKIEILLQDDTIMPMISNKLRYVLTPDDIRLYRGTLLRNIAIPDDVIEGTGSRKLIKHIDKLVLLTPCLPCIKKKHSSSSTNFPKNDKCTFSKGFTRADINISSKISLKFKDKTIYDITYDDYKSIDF
Procedure: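 Universal 'all 10-mer' protein binding microarrays (Agilent AMADID 015681) probed with GST-tagged S. cerevisiae TFs (full-length or DBD) made by in vitro transcription/translation (PURExpress), about 100-200 nM. Bound TF was detected with fluorescent anti-GST. Each ungapped 8-mer (which stands for itself and its reverse complement) is scored by the PBM enrichment score (E-score), a modified Wilcoxon-Mann-Whitney statistic from -0.5 to +0.5, computed with the Universal PBM Analysis Suite. Scale: above 0.35 generally sequence-specific binding.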

Row | Sequence | PBM E-score
1 | AACCTCCA | -0.137
2 | GCGGGAAC | -0.186
3 | AATAAGCA | 0.152
4 | AGGGTCGC | 0.0486
5 | GAACGAGC | -0.135
6 | ACGCCAAG | -0.26
7 | CCGGGCTC | 0.0382
8 | AATTATCA | 0.206
9 | AGGACACG | -0.106
10 | AGTCTTGA | -0.174
11 | ACTGGGGA | -0.236
12 | ATACGCAA | 0.0176
13 | AACTGGAC | -0.265
14 | CGATTCAC | 0.0111
15 | AAGAAGCG | -0.12
16 | AACTTTCA | 0.124
17 | GCTCTCCA | -0.151
18 | CTGACCGA | -0.114
19 | AAAGAACC | 0.163
20 | AAAGGCCT | -0.134
21 | GCAGCGTA | -0.144
22 | CTTTTTGC | 0.0242
23 | AGATGTAG | -0.0688
24 | TACTGATA | 0.151
25 | AGTCACAC | -0.139

Row | Sequence | PBM E-score
26 | GCGCGTAA | -0.0752
27 | ATTTAGAC | 0.0745
28 | CTAGTTCA | 0.149
29 | AGATCGGC | -0.0946
30 | AGGGATAG | -0.179
31 | CAAGCTGG | -0.243
32 | TCATTCGA | 0.0139
33 | TAGATAGA | 0.153
34 | AAACCGGG | 0.00149
35 | ATTGCAAC | 0.0207
36 | CCAACGCC | -0.24
37 | CTGGAAGA | -0.0626
38 | ATTTTTCC | 0.17
39 | AACTGCGA | 0.0109
40 | AACCCCAG | -0.158
41 | AACCCCCG | -0.193
42 | AGGTGCGA | -0.276
43 | GCTGCTGA | -0.0171
44 | AGAAAGAA | 0.205
45 | ATTACCGG | 0.162
46 | CATCCTGG | -0.148
47 | TCTAGTAA | 0.124
48 | ATGGATGG | -0.104
49 | CGGCTCGA | -0.00416
50 | CCATTGGC | -0.115

Row | Sequence | PBM E-score
51 | AGTTTCGA | 0.0435
52 | ATTAGCAG | -0.00581
53 | TCGCGCCA | -0.0197
54 | ATTACTAC | 0.111
55 | TCATTAGA | 0.0867
56 | AGACCTGG | -0.317
57 | ACAGCCGT | -0.222
58 | CGTAGGAA | 0.00468
59 | AAGTTATA | 0.186
60 | ATGCTAGA | 0.0093
61 | ACCGAACC | -0.0678
62 | GGCGTATA | -0.112
63 | ACAAAGCG | 0.0555
64 | GATTAACA | 0.142
65 | ACGGAGAC | 0.232
66 | GCTAGCGA | -0.0898
67 | AACTTTCC | 0.0535
68 | TACCTACA | -0.0369
69 | ACCCGAGT | -0.0972
70 | ACTAACCG | 0.0114
71 | ATAAGAAA | 0.176
72 | TAGTCGGA | 0.317
73 | ATCGTAGA | -0.0915
74 | TTATCGAA | 0.239
75 | CTAACTCC | 0.221

Row | Sequence | PBM E-score
76 | CTTACGTA | -0.0235
77 | AACGAGAA | 0.182
78 | AACGAAAA | 0.0998
79 | CTATAGAA | 0.124
80 | GATGATCC | 0.0171
81 | AGGTGGTG | -0.244
82 | CCGGAGAG | 0.253
83 | CTAACCGC | -0.179
84 | ATGCTTTC | 0.106
85 | GAACTTGA | 0.0807
86 | ACGGACCG | -0.0134
87 | AAAAGAAG | 0.126
88 | GGTATTTA | 0.113
89 | GTTGTCGA | -0.166
90 | GATGCACA | -0.18
91 | ATTTCCCC | -0.0345
92 | AGCACATA | 0.0233
93 | ATGATGTA | 0.22
94 | ACTCGGGC | -0.0385
95 | AAGCGAGT | -0.0164
96 | ACTTATAG | 0.0142
97 | ATAAAGAC | 0.126
98 | ATTAAAAG | 0.207
99 | ATCCGCTC | -0.0411
100 | ATCGCCAT | 0.0141

Row | Sequence | PBM E-score
101 | GTCGCGTA | -0.0265
102 | AAACGCGA | -0.0339
103 | TGAGAACA | 0.113
104 | GAAGGGGC | -0.265
105 | CGAAGTAC | 0.101
106 | CATCTTGG | -0.0952
107 | CATCGGCA | -0.0361
108 | AGTGATAT | 0.0292
109 | GGATTACA | 0.0508
110 | ACACACAC | 0.0716
111 | CGAGAATA | 0.0119
112 | GCAGTACA | -0.21
113 | TACTTGAA | 0.0853
114 | AGGGCGGG | -0.105
115 | AGACCAAT | 0.0669
116 | CAACGAAG | -0.0703
117 | ATATGTTG | 0.121
118 | CTACCAAG | -0.106
119 | AGCGTACT | 0.0192
120 | AAGGCCAG | -0.00339
121 | AGGTGCAA | -0.0176
122 | GTCGAGAA | -0.0575
123 | CCCCAAAG | -0.173
124 | GGAAATCA | 0.104
125 | GTGAAGAA | 0.0729

Row | Sequence | PBM E-score
126 | ATATCTCC | 0.341
127 | ATGGACAG | -0.159
128 | CAGTAGCC | -0.205
129 | AAATCGCT | 0.0625
130 | CCGGGAAG | 0.118
131 | AAGATCGC | -0.0393
132 | CGATACAG | 0.00085
133 | CCAATTTC | 0.196
134 | AGAGTATG | -0.176
135 | ACACGTCC | -0.119
136 | CCGTCCGA | 0.0411
137 | AGGTTAAC | 0.0215
138 | GAACGAAA | -0.0251
139 | CATTGACG | 0.0133
140 | CCGTAGCA | 0.0419
141 | ATAGAGTC | -0.0827
142 | ACCTTTGC | -0.0651
143 | GGTACTTA | 0.0964
144 | CCAGTGGG | -0.221
145 | ATTATCTG | 0.119
146 | ATTGCGGC | -0.171
147 | AGTTTATC | 0.17
148 | CTTTGCCA | 0.0365
149 | CTGGAGGC | -0.164
150 | AATTCTTA | 0.104

Row | Sequence | PBM E-score
151 | CCCGGGAA | -0.03
152 | CCATCGTA | -0.0311
153 | ATTCGGGA | 0.0168
154 | ACCGCAAA | 0.0534
155 | AACATGTC | 0.143
156 | GACAGACA | 0.113
157 | AACTGCGG | 0.0736
158 | CGACAACG | 0.0179
159 | ATTAACGA | 0.213
160 | AATAGAGG | -0.0802
161 | AAGTTTGG | 0.0859
162 | ATCTTACG | 0.111
163 | CCGCCGAG | -0.0739
164 | ATTTCGGA | 0.396
165 | GTGTGTCA | -0.0079
166 | GGGTTTGA | 0.135
167 | GGACACGA | -0.152
168 | CATCAGAA | 0.0121
169 | AGGGCTGC | -0.268
170 | GAAACCCC | 0.036
171 | CAGTCCTA | -0.126
172 | ACCGGACT | 0.485
